# Sequences with one replicate were seen in a single cluster, so their values are uncertain.
# Test system: ATP
# Assay: switch fluorescence ratio, 500 uM ATP over buffer (Cy3 cluster intensity, sum of 5 cycles each) (fold (ratio)); higher = stronger signal-on switching upon ATP binding; sequences stand for … in TCGTCGGCAGCGTCAGATGTGTATAAGAGACAGTTTTTTTTTTTTTTTTTTTTTTTTT…TC
# Details: aptamer strand: ATP DNA aptamer (quencher-CACCTGGGGGAGTATTGCGGAGGAAGG + anchor), 100 nM annealed; ATP concentration: 500 uM; one replicate
# In short: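 Five buffer/ATP imaging cycles were run on Cy3-labelled switching-strand clusters on a modified Illumina MiSeq flow-cell, with NaOH stripping and re-annealing between cycles. In each cycle, clusters annealed to 100 nM quencher-labelled ATP aptamer were imaged in selection buffer, then after 15 min with 500 uM ATP at 22 °C. Per cluster, the fluorescence ratio is summed target-cycle over summed buffer-cycle Cy3 intensity, averaged per switch-domain sequence. Only clusters within 100-1000 RFU were kept.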
# 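Note: ATP exposure 15 min at 22 °C before imaging.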
row,Sequence,switch fluorescence ratio
1,GGGACTTAGT,0.997
2,GGGAGAGA,1.03
3,GGGAGAGATT,1.01
4,GGGAGATCGG,1
5,GGGAGATGG,1.05
6,GGGAGATGTT,1.01
7,GGGAGCCTAG,1.03
8,GGGAGGAAA,0.96
9,GGGAGGTTTG,0.945
10,GGGAGTATCG,1.02
11,GGGAGTCCAT,0.99
12,GGGATAGCGA,1.02
13,GGGATAGGG,0.983
14,GGGATATTAA,1.03
15,GGGATCGGCC,1.03
16,GGGATCGGCT,1.1
17,GGGATGATGC,0.962
18,GGGATGCACA,0.989
19,GGGATGGC,1.07
20,GGGATGGCGG,0.965
21,GGGATGGGG,1
22,GGGATTAAAT,0.997
23,GGGATTCTT,0.939
24,GGGCAAACCT,2.23
25,GGGCAAGATG,1.06
26,GGGCACAAAA,1.04

row,Sequence,switch fluorescence ratio
1,GGGCATGA,0.98
2,GGGCATGCTA,0.988
3,GGGCCGATAT,0.97
4,GGGCCGCCGC,1.07
5,GGGCCGGATA,1.03
6,GGGCCGGATC,0.962
7,GGGCCTATAC,1.55
8,GGGCCTATC,0.96
9,GGGCGAGCGT,0.978
10,GGGCGCAATA,1.3
11,GGGCGCGGGC,1.01
12,GGGCGCTAGT,1.01
13,GGGCGCTCT,1
14,GGGCGGAACG,1.04
15,GGGCTACTAC,1.17
16,GGGCTATTGT,1.34
17,GGGCTCAGCG,0.972
18,GGGCTCTA,0.976
19,GGGCTGAAAG,1.01
20,GGGCTGAACA,1.01
21,GGGCTGCATC,1.05
22,GGGCTGGAAG,1.03
23,GGGCTTCGAA,1.03
24,GGGCTTGAAC,0.967
25,GGGGAACTCT,1
26,GGGGAATGAG,1.05

row,Sequence,switch fluorescence ratio
1,GGGGACCCGG,1.05
2,GGGGACCGAA,1.01
3,GGGGACGGTT,0.992
4,GGGGAGAACC,0.967
5,GGGGAGGCGG,1.01
6,GGGGAGTATA,1.02
7,GGGGATGCTA,0.989
8,GGGGATTCGA,1.01
9,GGGGCAAGGC,1.07
10,GGGGCACAAT,1.14
11,GGGGCCAGGA,1.06
12,GGGGCCCGA,0.986
13,GGGGCCCTAC,0.989
14,GGGGCCCTAT,0.99
15,GGGGCCTAAA,0.996
16,GGGGCGACAG,0.982
17,GGGGCGCTTG,1.01
18,GGGGCGGAGC,1.01
19,GGGGCTAAGG,1
20,GGGGCTCTC,1.03
21,GGGGGAATCT,0.97
22,GGGGGATTCA,1.01
23,GGGGGCAGCG,0.991
24,GGGGGCGATG,1.04
25,GGGGGGA,1.04
26,GGGGGGCACG,1.04

row,Sequence,switch fluorescence ratio
1,GGGGGGCGAA,0.953
2,GGGGGGTCAT,1.02
3,GGGGGGTG,1.05
4,GGGGGTCGAT,1.03
5,GGGGTCAAAT,0.991
6,GGGGTCACCA,0.986
7,GGGGTCACGA,0.996
8,GGGGTCGCGC,1.02
9,GGGGTCTAAC,0.986
10,GGGGTCTATG,0.991
11,GGGGTGCAGG,0.972
12,GGGGTGTGCC,1.02
13,GGGGTTAGCA,1.03
14,GGGGTTCGGA,0.984
15,GGGGTTGCCA,0.937
16,GGGGTTGTAT,1.02
17,GGGTAACGG,1.05
18,GGGTAACTCG,0.939
19,GGGTACAACT,0.99
20,GGGTACATTC,1.01
21,GGGTACCCTG,0.986
22,GGGTACGTTA,1.12
23,GGGTAGAAGC,0.985
24,GGGTAGGCAC,1.01
25,GGGTAGTATA,0.975
26,GGGTAGTTGC,0.969

row,Sequence,switch fluorescence ratio
1,GGGTATCAAC,0.968
2,GGGTATGAAT,0.961
3,GGGTATTAA,0.982
4,GGGTCAAAG,0.967
5,GGGTCAAATG,1.01
6,GGGTCAATT,0.983
7,GGGTCCGAGC,1.07
8,GGGTCCTTAG,1.04
9,GGGTCGACGG,0.969
10,GGGTCGC,0.975
11,GGGTCGCCTA,0.992
12,GGGTCGTGCG,1
13,GGGTCTAACA,0.973
14,GGGTCTAAGT,1.01
15,GGGTCTGAAG,0.953
16,GGGTCTTTAT,0.975
17,GGGTGAAACG,0.938
18,GGGTGAAACT,0.972
19,GGGTGAGGCT,0.981
20,GGGTGATCGC,0.98
21,GGGTGATTG,1.03
22,GGGTGCCGTT,0.932
23,GGGTGCGGAT,1.02
24,GGGTGGTGCG,0.999
25,GGGTGTAAA,1.1
26,GGGTGTCGCA,1

row,Sequence,switch fluorescence ratio
1,GGGTGTCGCC,0.955
2,GGGTGTCTTG,1.05
3,GGGTGTTAAG,0.997
4,GGGTGTTCCC,1
5,GGGTTAAATC,0.994
6,GGGTTACGAG,1.15
7,GGGTTAGCCG,1
8,GGGTTAGGT,1
9,GGGTTAGTAT,0.951
10,GGGTTCAATA,1.02
11,GGGTTCATTA,0.935
12,GGGTTCCC,0.965
13,GGGTTCGG,1.01
14,GGGTTCGGTA,1.01
15,GGGTTGATGT,1.03
16,GGGTTGCGAG,0.993
17,GGGTTTAGG,1
18,GGGTTTCTTG,0.993
19,GGGTTTGTTC,1.03
20,GGTAAAGGTC,0.975
21,GGTAAAGTCG,1.01
22,GGTAAAGTTT,1.01
23,GGTAAATACA,1.03
24,GGTAAATCAG,0.995
25,GGTAAATCGC,1.03
26,GGTAACGCAA,4.17

row,Sequence,switch fluorescence ratio
1,GGTAACTCTG,0.983
2,GGTAACTGAT,1.02
3,GGTAAGAAGC,1.08
4,GGTAAGGGCG,1.04
5,GGTAATACAG,0.979
6,GGTAATAGGT,0.967
7,GGTAATAGTC,1.08
8,GGTAATGGAG,1.02
9,GGTACAGATA,1.04
10,GGTACAGGAT,0.992
11,GGTACAGGCG,1.01
12,GGTACATATT,0.996
13,GGTACCAGTC,1.04
14,GGTACCATGT,1.02
15,GGTACCGATA,1.01
16,GGTACGCTCA,1.01
17,GGTACTCAGC,1.08
18,GGTAGAAAAA,1.01
19,GGTAGAAAAT,1.01
20,GGTAGAAAGT,0.957
21,GGTAGAGCTC,1.03
22,GGTAGTGGCG,0.926
23,GGTAGTTTCC,1.08
24,GGTATAAGA,1.09
25,GGTATACTGG,0.985
26,GGTATCATCT,0.952

row,Sequence,switch fluorescence ratio
1,GGTATGAGGG,1.02
2,GGTATGTTCC,1.01
3,GGTATTAGCA,1
4,GGTATTGAAT,1.05
5,GGTCAAAGGA,1.07
6,GGTCAAAGTT,1
7,GGTCAACCGG,0.986
8,GGTCAACTCA,0.956
9,GGTCAATCGG,0.972
10,GGTCACTAGG,1.04
11,GGTCACTCAT,0.963
12,GGTCAGGGCA,1
13,GGTCAGTTCG,0.995
14,GGTCATACGG,1.1
15,GGTCCAATCG,1.02
16,GGTCCACTCT,0.982
17,GGTCCAGCGT,1.02
18,GGTCCCTGTG,1.01
19,GGTCCGGACT,0.972

# From the supplement of paper PMC10126150
